Results published in PMC4336329 (PLoS ONE, 2015).
Among all 310,000 compounds or so, about 2,200 (0.71%) showed an effect of 50% or more. The effect is printed as a negative number. The list shows a part of the results.

biological target: human ether-à-go-go-related gene (hERG) potassium channel (human, UniProt Q12809); assay: primary screen, population patch clamp on CHO cells stably expressing hERG
Sequence (Q12809 whole entry, looked up): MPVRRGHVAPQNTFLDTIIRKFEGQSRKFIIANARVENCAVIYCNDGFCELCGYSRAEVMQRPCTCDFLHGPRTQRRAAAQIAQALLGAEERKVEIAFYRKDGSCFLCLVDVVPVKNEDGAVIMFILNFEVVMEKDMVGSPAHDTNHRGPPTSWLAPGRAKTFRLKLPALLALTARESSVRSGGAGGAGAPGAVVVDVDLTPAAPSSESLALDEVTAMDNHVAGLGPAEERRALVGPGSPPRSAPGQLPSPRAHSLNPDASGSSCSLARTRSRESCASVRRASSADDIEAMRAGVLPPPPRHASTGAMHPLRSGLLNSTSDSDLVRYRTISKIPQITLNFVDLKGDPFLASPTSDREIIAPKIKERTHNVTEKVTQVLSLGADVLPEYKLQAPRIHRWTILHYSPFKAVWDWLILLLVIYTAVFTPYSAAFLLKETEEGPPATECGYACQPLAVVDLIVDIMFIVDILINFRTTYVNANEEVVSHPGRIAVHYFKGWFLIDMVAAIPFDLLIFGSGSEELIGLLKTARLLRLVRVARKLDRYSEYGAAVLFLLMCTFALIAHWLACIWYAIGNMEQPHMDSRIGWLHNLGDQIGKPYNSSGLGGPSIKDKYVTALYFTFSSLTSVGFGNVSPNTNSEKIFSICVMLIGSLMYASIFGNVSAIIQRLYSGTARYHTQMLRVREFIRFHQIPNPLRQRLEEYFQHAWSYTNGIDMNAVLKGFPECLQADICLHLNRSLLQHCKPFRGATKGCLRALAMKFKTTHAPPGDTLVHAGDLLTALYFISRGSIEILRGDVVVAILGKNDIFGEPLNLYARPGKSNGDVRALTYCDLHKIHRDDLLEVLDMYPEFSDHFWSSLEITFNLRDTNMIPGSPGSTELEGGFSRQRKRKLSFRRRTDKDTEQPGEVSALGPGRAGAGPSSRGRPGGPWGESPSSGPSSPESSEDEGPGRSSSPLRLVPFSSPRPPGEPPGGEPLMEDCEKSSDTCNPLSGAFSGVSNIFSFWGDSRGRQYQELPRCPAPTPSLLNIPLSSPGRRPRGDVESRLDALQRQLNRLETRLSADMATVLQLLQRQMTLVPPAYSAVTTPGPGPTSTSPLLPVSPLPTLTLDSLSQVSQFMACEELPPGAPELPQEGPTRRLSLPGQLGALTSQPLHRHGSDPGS

Row | SMILES | hERG current change (%, negative = inhibition) at 1uM
1 | Cc1ccc(OCCC(=O)OCC(=O)Nc2ccc3c(c2)OCCO3)cc1 | -2.11%
2 | COc1ccc(C)cc1S(=O)(=O)N1CCN(c2ccccc2)CC1 | 14.3%
3 | COc1cc(/C=N/NC(=O)c2ccc(COc3cc(C)ccc3C(C)C)cc2)cc(OC)c1O | 7.3%
4 | CCc1cc(C)cc(OCCNC(=O)c2cncc(Br)c2)c1 | -3.21%
5 | COCCCNC(=O)Cn1c(=O)n(CCCCCC(=O)NCc2ccc3c(c2)OCO3)c(=O)c2sccc21 | -14.2%
6 | Cc1ccc(CN=C(Nc2ccccc2)NC2CCCCC2)cc1 | -1.92%
7 | COc1ccc(OC)c(CCNC(=O)c2cccc(NC(=O)C3=C(C)OCCS3)c2)c1 | 24%
8 | O=C(Cc1cccc(C(F)(F)F)c1)NCC(=O)Nc1cc(Cl)ccc1Cl | 6.69%
9 | COC(=O)C(O)(CC(=O)Nc1ccc(Cl)cc1F)C(F)(F)F (stereo not drawn) | 15%
10 | CCOc1ccccc1N(CC(=O)NC1CCCC1)C(=O)CCC(=O)Nc1cc(C)on1 | 10.1%
11 | Cc1ccc(NC2CCCN(C(=O)c3cccc(-c4ncc[nH]4)c3)C2)cc1C (stereo not drawn) | 14.4%
12 | CCCC(=O)NC(=S)Nc1cccc(Cl)c1N1CCCC1 | 9.82%
13 | COc1ccc(N2CCN(S(=O)(=O)c3cn(C)cn3)CC2)cc1 | 5.72%
14 | COc1ccc2[nH]c(=O)c(CN(CC3CCCO3)C(=S)Nc3ccc(C)cc3)cc2c1 (stereo not drawn) | 6.37%
15 | O=C1CN(C(=O)c2cc3ccccc3oc2=O)C(c2ccc(F)cc2)c2cc(Br)ccc2N1 (stereo not drawn) | -4.56%
16 | O=C1NC(=S)N/C1=C\C=C\c1ccccc1 | 12.7%
17 | Cc1csc(NC(=O)CCCC(=O)O)c1-c1nc2ccccc2s1 | 17.3%
18 | COC(=O)[C@@H]1C[C@@]2(Br)c3ccccc3N(S(=O)(=O)c3ccccc3)[C@H]2N1C(=O)OC | 6.41%
19 | COC(=O)c1sccc1S(=O)(=O)Nc1ccc(S(N)(=O)=O)cc1 | -16.1%
20 | N#Cc1ccc(-c2nc3ccccc3nc2-c2ccccc2)cc1C#N | 19%
21 | CN(C(=O)c1ccccc1OCc1ccc(Cl)cc1)c1ccccc1 | 9.98%
22 | CCN(CC(=O)Nc1ccc(N2CCOCC2)cc1)Cc1nc2ccccc2c(=O)[nH]1 | -3.01%
23 | C=CCc1ccccc1OCCn1ccnc1 | 11.5%
24 | O=C1Nc2ccccc2/C1=N\c1sc2c(c1C(=O)Nc1ccccc1)CCCC2 | -19.9%
